PMC4336329 (PLoS ONE, 2015)
Screen size: about 310,000 compounds; about 2,200 (0.71%) showed an effect of 50% or more. Effects have a minus sign here. The list shows a part of the results.

target: human ether-à-go-go-related gene (hERG) potassium channel (human, UniProt Q12809); assay: primary screen, population patch clamp on CHO cells stably expressing hERG
Sequence (Q12809 whole entry, looked up): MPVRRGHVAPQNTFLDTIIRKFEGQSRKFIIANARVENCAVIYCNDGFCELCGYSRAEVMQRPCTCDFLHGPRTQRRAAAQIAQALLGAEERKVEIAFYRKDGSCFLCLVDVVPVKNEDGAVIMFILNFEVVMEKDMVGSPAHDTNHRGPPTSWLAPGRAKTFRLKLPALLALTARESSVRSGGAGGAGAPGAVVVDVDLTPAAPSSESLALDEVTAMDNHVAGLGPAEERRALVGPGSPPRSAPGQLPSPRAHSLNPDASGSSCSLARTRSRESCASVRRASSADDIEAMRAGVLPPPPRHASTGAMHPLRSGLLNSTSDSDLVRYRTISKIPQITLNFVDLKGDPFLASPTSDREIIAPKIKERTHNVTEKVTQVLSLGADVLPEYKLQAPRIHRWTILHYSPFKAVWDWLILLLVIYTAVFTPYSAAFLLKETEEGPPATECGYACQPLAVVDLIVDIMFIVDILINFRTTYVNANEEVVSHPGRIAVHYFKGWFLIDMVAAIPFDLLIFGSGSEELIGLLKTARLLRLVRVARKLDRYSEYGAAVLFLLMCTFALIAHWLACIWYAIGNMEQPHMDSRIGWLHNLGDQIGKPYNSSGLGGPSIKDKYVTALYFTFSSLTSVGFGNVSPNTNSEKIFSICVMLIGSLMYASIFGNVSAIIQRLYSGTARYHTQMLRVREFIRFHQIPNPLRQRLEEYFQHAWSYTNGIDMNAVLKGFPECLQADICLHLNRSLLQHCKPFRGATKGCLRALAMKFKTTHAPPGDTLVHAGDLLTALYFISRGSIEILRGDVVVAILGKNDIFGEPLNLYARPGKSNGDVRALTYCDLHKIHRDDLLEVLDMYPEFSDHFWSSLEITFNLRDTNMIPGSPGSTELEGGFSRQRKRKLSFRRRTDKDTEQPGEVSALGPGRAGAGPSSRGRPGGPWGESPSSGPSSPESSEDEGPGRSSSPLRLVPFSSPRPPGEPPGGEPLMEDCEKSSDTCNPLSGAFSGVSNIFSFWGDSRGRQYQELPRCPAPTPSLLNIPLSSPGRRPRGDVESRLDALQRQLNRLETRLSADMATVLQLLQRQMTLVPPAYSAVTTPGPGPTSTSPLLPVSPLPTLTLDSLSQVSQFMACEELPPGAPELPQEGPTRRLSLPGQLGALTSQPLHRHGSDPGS

SMILES | hERG current change (%, negative = inhibition) at 1uM [%]
CCOc1ccc(/C=C/C2=NNC(=O)CC2)cc1 | 7.73
CN1CCN(Cc2nc3ccccc3c(=O)n2CC#N)CC1 | 6.37
C/C(=N\NC(=O)CC(C)C)c1c(C(F)(F)F)[nH]n(-c2nc3ccccc3s2)c1=O | 14.2
CCCCC1CCC(C(=O)N(CC(C)C)c2c(N)n(Cc3ccccc3)c(=O)[nH]c2=O)CC1 (stereo not drawn) | 14
Cc1cc(Cl)ccc1OCC(=O)Nc1cccc(S(=O)(=O)NC2=NCCCCC2)c1 | 10.1
COc1ccc(NC(=O)CN(c2ccccc2)S(=O)(=O)N(C)C)cc1Cl | 8.48
COC(=O)CSc1nc(C)c(Oc2ccccc2)c(=O)[nH]1 | 10.1
CCNc1nc(N2CCCC2)nc(N2CCCC2)n1 | 0.687
CCN(CC)c1cccc(OCC(=O)N(C)CCC#N)c1 | 18.6
CCOC(=O)CSc1nnc(-c2ccc([N+](=O)[O-])cc2)o1 | 8.46
C=CCOc1c(Br)cc(CNc2ccc(NC(=O)C(C)C)c(OC)c2)cc1OC | -6.12
O=C(NNC(=O)c1cnccn1)c1ccc(Cl)cc1 | 14.5
Cc1ccc(S(=O)(=O)Nc2ccc(Nc3ccccc3)cc2)cc1 | 11.7
CCOc1cc2c(cc1C(C)(C)C)NC(=O)CS2 | 6.49
CCCc1cc(=O)n2[nH]cc(-c3ccc(Cl)cc3)c2n1 | 13.2
CCCC(=O)Nc1sc(C(=O)OC)c(C)c1C(N)=O | 8.48
CCOC(=O)c1c(C)c(C(=O)Nc2ccc(F)cc2)c(C)n1C | 12.2
Cc1c(NS(=O)(=O)c2ccc(N=NN(C)C)cc2)c(=O)n(-c2ccccc2)n1C | 2.42
CN(/N=C/c1ccc(O)cc1O)c1ncc(C(F)(F)F)cc1Cl | 13.6

SMILES | hERG current change (%, negative = inhibition) at 1uM [%]
COc1ccc(NC(=O)c2ccc([N+](=O)[O-])o2)cc1 | 14.5
Cc1ccc(-c2c(C#N)c(N)n(-c3ccc(C)cc3)c(=O)c2C#N)cc1 | 9.99
CCOc1ccccc1NC(=O)CCSc1nc2n[nH]c(C)c2c(=N)n1-c1ccccc1Cl | -2.02
C/C(=N\N1CCCCCC1)c1c(O)n(-c2ccccc2)c(=O)[nH]c1=O | 4.46
O=C(Nc1ccc2ccccc2c1)C(c1ccccc1)C1CCCC1 (stereo not drawn) | 3.85
Cc1ccc(-n2c(Cc3cccn3C)nnc2SCC(=O)N2CCc3ccccc32)cc1 | -1.98
Cc1nnc(SCC(=O)Nc2ccc3c(c2)OCO3)o1 | 14.8
CCOC(=O)c1cc(-c2ccccc2)sc1NC(=O)C(C)Sc1nnnn1C (stereo not drawn) | 9.21
O=C(c1ccccc1F)N1CCN(Cc2nc3sc4c(c3c(=O)[nH]2)CCCC4)CC1 | -34.7
CCOCCc1nnc(NC(=O)Cc2ccc(Br)cc2)s1 | -6.64
O=C(c1ccc(NS(=O)(=O)c2cccs2)cc1)N1CCCCC1 | 5.03
O=C1/C(=C/c2ccncc2)SC(=S)N1Cc1ccccc1 | -3.95
Cc1c(NP(=O)(Oc2ccccc2F)Oc2ccccc2F)c(=O)n(-c2ccccc2)n1C | 5.11
NNC(=O)C1SCCN1S(=O)(=O)c1ccc(Cl)cc1 (stereo not drawn) | 14.7
CN(C)S(=O)(=O)c1ccc(C(=O)Nc2ccn(C)n2)cc1 | 8.2
COc1ccc(CNC(=O)C(=O)NCCC2CCCCN2S(=O)(=O)c2cccs2)cc1 (stereo not drawn) | 11.7
CCOc1ccc(N2C(=O)CC(Cc3cc(C)cc(C)c3)C2=O)cc1 (stereo not drawn) | 15.2
O=C(O)Cc1ccc(O)c(F)c1 | 4.7
Cc1ccc(NC(=O)Cn2cnc3c(nnn3Cc3ccc(F)cc3)c2=O)cc1 | 10.9

SMILES | hERG current change (%, negative = inhibition) at 1uM [%]
CCn1c(O)c(C#N)c(C)cc1=O | 17.9
CCCNC(=O)c1ccc(N2CCC3(CC2)CC(c2ccc(Cl)cc2)=NO3)c([N+](=O)[O-])c1 | -10.6
Nc1cccc(N2C(=O)c3cccc4c(N)ccc(c34)C2=O)c1 | 7.7
COc1ccc(OC)c(S(=O)(=O)NCc2cccnc2)c1 | 2.5
CCOC(=O)C1CCCN(S(=O)(=O)c2c(C(=O)N3CCCCC3)c(C)n(C)c2C)C1 (stereo not drawn) | 12.6
COc1ccc(OC)c(NC(=O)COC(=O)CCC2CCCC2)c1 | 6.85
CCOC(=O)C(=O)NCC(c1cccs1)S(=O)(=O)c1ccc(C)cc1 (stereo not drawn) | -11
COc1ccc(OCc2cc(C(=O)NC3CCc4ccccc43)no2)c(Cl)c1 (stereo not drawn) | 12.6
COc1cccc(-n2cnnc2SC(C)C(=O)NC2CCCC2)c1 (stereo not drawn) | 1.93
Cc1ccc(Nc2nc(=O)c3cc([N+](=O)[O-])ccc3s2)cc1 | 16.6
COC(=O)CSc1nc2sc3c(c2c(=O)n1-c1ccccc1)CCN(C)C3 | 8.23
Cn1ccsc1=NC(=O)c1ccc(S(C)(=O)=O)c([N+](=O)[O-])c1 | 19.8
Cc1ccc(-c2cc(-c3ccccc3)cc(-c3ccccc3)[n+]2-c2ccccc2C(=O)O)cc1.[O-][Cl+3]([O-])([O-])[O-] | 1.86
CCOC(=O)c1ccccc1NC(=O)N1CCn2c(C)ccc2C1CC (stereo not drawn) | 9.11
Cc1cccc(C)c1NC(=O)C1(NC(=O)C2CCCN2C(=O)OC(C)(C)C)CCCCC1 (stereo not drawn) | -11.8
Cc1ccc(S(=O)(=O)Nc2ccc(=O)n(Cc3ccc(Cl)c(Cl)c3)c2)cc1 | -3.76
CCN(CC1COc2ccccc2O1)C(=S)Nc1ccc(F)cc1 (stereo not drawn) | 6.86
CC(=O)N(C)c1ccc(OCC(O)CN(c2ccccc2C)S(=O)(=O)c2ccc(C)cc2)cc1 (stereo not drawn) | 12.5
C=CCN(C(=O)c1csnn1)C(C(=O)NCc1ccccc1)c1cccs1 (stereo not drawn) | 6.72
